{"source": "PubChem BioAssay AID504332", "about": "(National Center for Advancing Translational Sciences (NCATS), 2011)", "note": "About 31,000 (8.9%) of roughly 350,000 compounds were called active. Inconclusive means that the source gave no clear call. Such entries were picked first, then a sample of the others. Calls come from the whole dose curve; as a rule, active = well fitted inhibition curve with a large enough effect; inconclusive = small, poorly fitted or top-dose-only effect; inactive = no such curve, though single readings can be large or run the other way. Potencies of inconclusive entries are doubtful fits and often do not repeat. % is set by controls: 0 for no effect and ±100 for the full control effect; potency is the fitted concentration of half-maximal effect; tags give direction and shape of the fitted curve."}
{"target": "Histone-lysine N-methyltransferase EHMT2 (Homo sapiens) (UniProt Q96KQ7)", "sequence (Q96KQ7 whole entry, looked up)": "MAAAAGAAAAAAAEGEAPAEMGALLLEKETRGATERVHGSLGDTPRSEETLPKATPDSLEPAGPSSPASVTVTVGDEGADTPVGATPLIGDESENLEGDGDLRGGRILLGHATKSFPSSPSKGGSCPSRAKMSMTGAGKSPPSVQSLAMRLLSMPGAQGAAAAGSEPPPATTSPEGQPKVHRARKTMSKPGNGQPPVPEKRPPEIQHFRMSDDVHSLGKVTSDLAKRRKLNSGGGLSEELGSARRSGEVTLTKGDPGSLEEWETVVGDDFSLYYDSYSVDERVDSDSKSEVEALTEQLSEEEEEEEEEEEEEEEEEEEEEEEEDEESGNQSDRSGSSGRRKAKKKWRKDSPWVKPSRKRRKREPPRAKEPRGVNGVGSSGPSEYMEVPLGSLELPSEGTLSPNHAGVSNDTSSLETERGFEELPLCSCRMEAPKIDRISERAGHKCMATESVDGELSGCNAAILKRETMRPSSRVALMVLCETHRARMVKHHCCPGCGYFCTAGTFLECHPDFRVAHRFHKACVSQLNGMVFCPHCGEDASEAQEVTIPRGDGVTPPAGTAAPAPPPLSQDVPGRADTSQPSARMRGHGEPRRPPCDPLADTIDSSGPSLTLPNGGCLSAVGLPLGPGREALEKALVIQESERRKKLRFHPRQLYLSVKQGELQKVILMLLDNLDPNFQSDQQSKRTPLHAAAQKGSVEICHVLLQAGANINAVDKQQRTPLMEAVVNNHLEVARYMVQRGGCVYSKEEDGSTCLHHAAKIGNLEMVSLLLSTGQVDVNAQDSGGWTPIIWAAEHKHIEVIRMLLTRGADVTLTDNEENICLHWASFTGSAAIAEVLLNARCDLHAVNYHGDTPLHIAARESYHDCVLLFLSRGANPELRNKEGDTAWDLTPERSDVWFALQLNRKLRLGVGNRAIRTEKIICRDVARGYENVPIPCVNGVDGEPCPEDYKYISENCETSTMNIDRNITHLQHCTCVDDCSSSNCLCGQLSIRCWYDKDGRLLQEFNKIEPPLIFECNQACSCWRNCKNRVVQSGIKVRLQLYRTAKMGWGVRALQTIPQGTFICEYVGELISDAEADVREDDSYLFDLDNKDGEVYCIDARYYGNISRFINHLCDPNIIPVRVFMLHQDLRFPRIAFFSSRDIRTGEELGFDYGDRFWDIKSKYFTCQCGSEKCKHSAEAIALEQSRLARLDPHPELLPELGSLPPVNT", "experiment": "qHTS Assay for Inhibitors of Histone Lysine Methyltransferase G9a; note: nearly all actives have a fitted effect of over 75% in size", "settings": "G9a H3K9 monomethylation, AlphaScreen, 2 h; activity, negative = inhibition: at 59 µM (top of the series) unless noted", "in_short": "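G9a (20 nM) was preincubated 15 min with compound, then reacted 2 h at room temperature with 500 nM biotin-H3K9 peptide and 20 µM SAM. Monomethyl-H3K9 detected by AlphaScreen using anti-H3K9me1 antibody.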"}
{"smiles": "C=CCc1cc(C)ccc1OCCOCCN1CCN(C)CC1", "Potency": "active: 14.1 µM"}
{"smiles": "CCc1ccc(NC(=O)CC2C(=O)N(c3ccc(F)cc3)C(=O)N2Cc2ccc(F)cc2)cc1", "note": "(stereo not given)", "Potency": "inactive"}
{"smiles": "COc1ccc(OC)c(-c2csc(N(Cc3ccco3)C(=O)c3ccco3)n2)c1", "Potency": "inconclusive: 50.1 µM [inhibitor, partial curve, poor fit]"}
{"smiles": "C1=CCC(CN2CCNCC2)CC1", "note": "(stereo not given)", "Potency": "inconclusive: 70.8 µM [inhibitor, partial curve, poor fit]"}
{"smiles": "Cc1sc2ncnc(NCCCN3CCCC3=O)c2c1C", "Potency": "inconclusive: 50.1 µM [inhibitor, partial curve, poor fit]"}
{"smiles": "COc1ccc(NC(=O)Nc2cc(C(=O)NCc3ccc(C)cc3)ccc2N2CCCC2)cc1", "activity, negative = inhibition": "inactive: 8.44% [at 12.7 µM]"}
{"smiles": "O=C(Nc1ccc(Br)cc1)C1CCCN(C2=NS(=O)(=O)c3ccccc32)C1", "note": "(stereo not given)", "Potency": "inconclusive: 17.8 µM [inhibitor, single point]"}
{"smiles": "COc1ccccc1CNC(=O)C(NS(=O)(=O)c1ccc2c(c1)oc(=O)n2C)C(C)C", "note": "(stereo not given)", "Potency": "inactive"}
{"smiles": "CCCc1cc(=O)oc2cc(OC(C)C(=O)NC3CC(C)(C)NC(C)(C)C3)ccc12", "note": "(stereo not given)", "Potency": "active: 7.08 µM"}
{"smiles": "COc1ccc(C)cc1NC(=O)CSc1nnnn1Cc1ccccc1", "Potency": "inconclusive: 79.4 µM [inhibitor, single point]"}
{"smiles": "COc1ccc(NC(=O)CN(C)C(=O)c2cc(-c3ccco3)nc3ccccc23)cc1", "activity, negative = inhibition": "inactive: -2.67% [at 0.501 µM]"}
{"smiles": "O=C(c1cnn(-c2ccc(F)cc2)c1-n1cccc1)N1CCN(c2ccccc2)CC1", "Potency": "inconclusive: 8.91 µM [inhibitor, partial curve, poor fit]"}
{"smiles": "CN(CC(=O)Nc1c(Cl)cccc1Cl)C(=O)c1cc2ccccc2cc1O", "Potency": "inconclusive: 56.2 µM [inhibitor, partial curve, poor fit]"}
{"smiles": "COc1ccc(Cl)cc1NC(=O)CN(C)CC(=O)Nc1ccc(S(N)(=O)=O)cc1", "Potency": "inconclusive: 89.1 µM [inhibitor, single point]"}
{"smiles": "CCS(=O)(=O)Nc1ccc(C2=NN(S(=O)(=O)c3ccc(F)cc3)C(c3ccco3)C2)cc1", "note": "(stereo not given)", "Potency": "active: 79.4 µM"}
{"smiles": "CCCNC(=O)c1c(O)c2cccc3c2n(c1=O)CCC3", "Potency": "inconclusive: 79.4 µM [inhibitor, single point]"}
{"smiles": "Nc1ccc(Nc2ccccc2N)cc1", "Potency": "inconclusive: 39.8 µM [inhibitor, single point]"}
{"smiles": "CC1=NN(c2ccc(Br)cc2)C(=O)/C1=C/c1ccc(-c2ccccc2C(=O)O)o1", "Potency": "active: 35.5 µM"}
{"smiles": "O=C(CSc1nc2ccccc2n1CCc1ccccc1)NC1CC1", "Potency": "inconclusive: 39.8 µM [inhibitor, partial curve]"}
{"smiles": "COc1ccccc1-c1ccc(SCc2ccccc2F)nn1", "Potency": "inactive"}
{"smiles": "COc1cccc(NC(=O)C2=COCCO2)c1", "Potency": "inactive"}
{"smiles": "Cc1ccc(NC(=O)c2ccc(C)c(S(=O)(=O)N3CCCCCC3)c2)cc1", "Potency": "inactive"}
{"smiles": "O=[N+]([O-])c1ccc(NC(=S)NCCc2ccccc2)cc1", "Potency": "active: 44.7 µM"}
{"smiles": "COc1ccc(C)cc1NS(=O)(=O)c1ccc2oc(=O)c3ncn(C)c3c2c1", "Potency": "inconclusive: 3.16 µM [inhibitor, partial curve, poor fit]"}
{"smiles": "COc1ccc2c(Cl)c(C(=O)NC3CCS(=O)(=O)C3)sc2c1", "note": "(stereo not given)", "Potency": "inconclusive: 20 µM [inhibitor, single point]"}
{"smiles": "CCN(CC)c1ccc(C2C(C(N)=O)=C(C)Nc3nc(SCc4ccccc4Cl)nn32)cc1", "note": "(stereo not given)", "Potency": "inactive"}
{"smiles": "CCOc1cc(/C=C2\\N=C(SC(C)C(N)=O)N(c3ccc(OC(F)F)cc3)C2=O)ccc1O", "note": "(stereo not given)", "Potency": "inconclusive: 15.8 µM [inhibitor, partial curve]"}
{"smiles": "Cc1ccc(NC(=S)Nc2ccc(F)cc2)cc1C", "Potency": "inactive"}
{"smiles": "Cc1cc(F)ccc1NCC(=O)Nc1ccc(Br)cc1C", "Potency": "inconclusive: 79.4 µM [inhibitor, single point]"}
{"smiles": "CC(C)NC(=O)CSc1c2c(nc3ccccc13)CCCC2", "Potency": "inactive"}
{"smiles": "CC1CCc2[nH]c3ccc(C(=O)N4CCCC(C(F)(F)F)C4)cc3c2C1", "note": "(stereo not given)", "Potency": "active: 35.5 µM"}
{"smiles": "CCOc1ccc(NC(=O)c2c(NCc3cccs3)sc3c2CCC(C)C3)cc1", "note": "(stereo not given)", "Potency": "inconclusive: 22.4 µM [inhibitor, single point]"}
{"smiles": "Cc1cc(NC(=O)c2ccc(N3CCCC3)c([N+](=O)[O-])c2)no1", "Potency": "inconclusive: 89.1 µM [inhibitor, partial curve, poor fit]"}
{"smiles": "Cc1cccc(CN2CCc3c([nH]c4ccccc34)C2CC(C)C)n1", "note": "(stereo not given)", "Potency": "inconclusive: 100 µM [inhibitor, single point]"}
{"smiles": "COc1cc(/C=N/NC(=O)c2ccncc2)ccc1OCC(=O)Nc1ccccc1", "Potency": "inactive"}
{"smiles": "O=C(O)CCC(=O)N1CCc2cc(S(=O)(=O)NCCc3ccc(Cl)cc3)ccc21", "Potency": "inconclusive: 70.8 µM [inhibitor, single point]"}
{"smiles": "Cc1ccc(Cl)cc1N1CCN(C(=O)c2cn(C)c(=O)c3c2c2ccccc2n3C)CC1", "activity, negative = inhibition": "inconclusive: -66.2% [inhibitor]"}
{"smiles": "CSc1oc(-c2ccco2)nc1S(=O)(=O)c1ccccc1", "Potency": "active: 31.6 µM"}
{"smiles": "O=C1CCN(Cc2nnnn2CC2CCCO2)c2ccccc2N1", "note": "(stereo not given)", "Potency": "inconclusive: 70.8 µM [inhibitor, single point]"}
{"smiles": "COc1ccc2c(c1)CC(C(=O)Nc1cc(OC)c(OC)c(OC)c1)CO2", "note": "(stereo not given)", "Potency": "inactive"}
{"smiles": "CCCCCn1c(CN2CCN(C(=O)OCC)CC2)nc2c1c(=O)[nH]c(=O)n2C", "Potency": "inconclusive: 50.1 µM [inhibitor, partial curve, poor fit]"}
{"smiles": "O=C(NC1CCCCCCC1)c1ccccc1O", "Potency": "inactive"}
{"smiles": "CC1CCCCC1NC(=O)COC(=O)COc1ccc(Cl)cc1", "note": "(stereo not given)", "Potency": "inconclusive: 100 µM [inhibitor, single point]"}
{"smiles": "CCc1cccc(C)c1NC(=O)c1cc(S(=O)(=O)N2CCN(c3ccccc3)CC2)ccc1F", "Potency": "inactive"}
{"smiles": "O=C1NCCCC1C(=O)N1CCN(C(c2ccccc2)c2ccccc2)CC1", "note": "(stereo not given)", "Potency": "inconclusive: 89.1 µM [inhibitor, single point]"}
{"smiles": "CC(=O)c1ccc2cccc3c2c1N=CN3C", "Potency": "active: 44.7 µM"}
{"smiles": "Cc1cccc(C(=O)Nc2nsc(N)n2)c1", "activity, negative = inhibition": "inactive: -1.7% [at 12.7 µM]"}
{"smiles": "COc1cc(OC)cc(C(=O)Nc2cccc(-c3cn4ccsc4n3)c2)c1", "Potency": "inactive"}
{"smiles": "Cc1ccc2c(CN3CCN(C(=O)c4ccco4)CC3)cc(=O)oc2c1C", "Potency": "inconclusive: 89.1 µM [inhibitor, single point]"}
{"smiles": "O=C(O)CC(NC(=O)C12CC3CC(CC(C3)C1)C2)c1ccc(OC2CCCC2)cc1", "note": "(stereo not given)", "Potency": "inconclusive: 89.1 µM [inhibitor, partial curve, poor fit]"}
{"smiles": "Cc1ccc(C(C)(C)C)cc1S(=O)(=O)Nc1cccc(C(=O)N2CCN(c3ccccn3)CC2)c1", "Potency": "inconclusive: 8.91 µM [inhibitor, partial curve, poor fit]"}
{"smiles": "C1CCN=C(NC23CC4CC(CC(C4)C2)C3)CC1", "Potency": "inactive"}
{"smiles": "O=C(N/N=C/c1ccccn1)c1cccc(S(=O)(=O)Nc2ccccc2Cl)c1", "Potency": "inactive"}
{"smiles": "CCn1c(O)c(C=Nc2ccccc2)n(-c2ccccc2)c1=S", "Potency": "active: 7.94 µM"}
{"smiles": "CN(C(=O)CSc1nc(-c2ccccc2)c(-c2ccccc2)o1)C1CCS(=O)(=O)C1", "note": "(stereo not given)", "Potency": "inconclusive: 39.8 µM [inhibitor, partial curve]"}
{"smiles": "Clc1ccc(-c2nc3ccccn3c2CN2CCOCC2)cc1", "activity, negative = inhibition": "inconclusive: -58% [inhibitor] [at 12.7 µM]"}
{"smiles": "C/C(=N\\Nc1ccccc1)c1cccc(N)c1", "Potency": "active: 8.91 µM"}
{"smiles": "Cc1ccc(NC(=O)Nc2cc(Cl)ccc2C2COC(=O)C2=N)cc1", "note": "(stereo not given)", "Potency": "inconclusive: 56.2 µM [inhibitor, partial curve]"}
{"smiles": "CN(C)CC#CCC(O)(c1ccccc1)C1CCCCC1", "note": "(stereo not given)", "Potency": "inactive"}
{"smiles": "CCN1CCN(S(=O)(=O)c2cc3c(cc2Cl)NC(=O)CO3)CC1", "Potency": "inactive"}
{"smiles": "O=C(CN1CCN(Cc2ccccc2)CC1)N1CCCc2c1c(=O)oc1ccc(O)cc21", "Potency": "inactive"}
{"smiles": "CCc1nnc(NC(=O)CSc2nc3ccccc3s2)s1", "Potency": "inconclusive: 63.1 µM [inhibitor, single point]"}
{"smiles": "CCOc1ccc(NC(=O)CSc2cn(CC(=O)N3CCOCC3)c3ccccc23)cc1", "Potency": "inactive"}
{"smiles": "Cc1nc(-c2ccc(NC(=O)/C=C\\C(=O)O)cc2)cs1", "Potency": "active: 35.5 µM"}
{"smiles": "CC(C)OCCCn1c(SCc2ccccc2Cl)nc2c(sc3ccccc32)c1=O", "Potency": "inactive"}
{"smiles": "CC(=O)Nc1ccc(S(=O)(=O)Nc2nc3ccccc3nc2Sc2nncn2C)cc1", "Potency": "inconclusive: 70.8 µM [inhibitor, partial curve, poor fit]"}
{"smiles": "CCOC(=O)N1CCN(C(=O)CCSc2ccc(C)cc2)CC1", "Potency": "inactive"}
{"smiles": "Cc1ccc(-n2c(-c3ccccc3)n[nH]c2=S)cc1", "Potency": "active: 0.891 µM"}
{"smiles": "COc1ccc(CCCCCCOCc2ccccc2)cc1", "activity, negative = inhibition": "inactive: -4.27% [at 0.501 µM]"}
{"smiles": "CC(=O)Nc1c(C)nn(-c2ccccc2)c1N1CCC(C(=O)NCc2cccc(F)c2)CC1", "Potency": "inactive"}
{"smiles": "Cc1ccc(N(CC(=O)N2CCN(c3cccc(C)c3C)CC2)S(=O)(=O)c2c(C)nn(C)c2C)cc1", "Potency": "inconclusive: 11.2 µM [inhibitor, partial curve, poor fit]"}
{"smiles": "COc1ccc(N2CCN(Cc3cc4c(cc3Br)OCCO4)CC2)cc1", "Potency": "active: 28.2 µM"}
{"smiles": "O=C(Cn1c(NCCCO)nc2ccccc21)c1ccc(Br)cc1", "Potency": "inconclusive: 17.8 µM [inhibitor, single point]"}
{"smiles": "COc1ccc(C(=O)NCc2ccc(N3CCN(C)CC3)cc2)cc1", "Potency": "inconclusive: 56.2 µM [inhibitor, partial curve, poor fit]"}
{"smiles": "Cc1cccc(NC(=O)c2ccc(Cn3nc(N4CCN(c5ccccc5)CC4)ccc3=O)o2)c1C", "Potency": "inconclusive: 22.4 µM [inhibitor, single point]"}
